In patent US20180312565A1 (Affibody, published 2018):

How the values were obtained:
[1] = biological target: T1, human PD-L1 Fc Chimera (R&D Systems, cat. no. 156-B7-100) (human, UniProt Q9NZQ7 19-239, biotinylated with Sulfo-NHS-LC-Biotin in ELISA and AlphaLISA; not biotinylated in SPR); assay: AlphaLISA, blocks hPD-L1 binding to hPD-1
T1 construct: bought; also called hPD-L1; biotinylated hPD-L1; not shown: Fc part of the bought Fc chimera, not described
Protocol: Exception 2: hPD-1-coated Acceptor beads were added to a final concentration of 10 μg/ml and incubated for 50 min.

[2] = biological target: T2, rhesus PD-L1/Fc Chimera (Sino Biological Inc., cat. no. 90251-C02H) (rhesus monkey, UniProt F6PJN1 19-239); assay: SPR ranking, 5 and 50 nM
T2 construct: bought; also called RhPD-L1; rhesus monkey PD-L1; not shown: Fc part of the bought Fc chimera, not described
T2 sequence (F6PJN1 entry or part of it C02H C02H): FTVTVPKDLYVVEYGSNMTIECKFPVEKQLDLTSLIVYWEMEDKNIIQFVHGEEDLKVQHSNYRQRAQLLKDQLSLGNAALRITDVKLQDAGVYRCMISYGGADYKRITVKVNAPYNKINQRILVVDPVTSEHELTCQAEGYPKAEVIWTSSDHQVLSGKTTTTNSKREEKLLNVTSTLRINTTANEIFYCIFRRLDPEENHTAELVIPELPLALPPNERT
Protocol: (§1) The Z variants were also tested for binding against the sequence-related proteins hPD-L2, hB7-H3 and hB7-H4. The Biacore analyses were performed essentially as described in Example 3, however a flow rate of 30 μl/min was used. […] In the specificity test, i.e. the binding analysis against hPD-L2, hB7-H3 and hB7-H4, the 24 Z variants were injected at a concentration of 500 nM.

[3] = biological target: T1, human PD-L1 Fc Chimera (R&D Systems, …); assay: SPR ranking, 5 and 50 nM
Protocol: as §1

[4] = biological target: T3, human B7-H4 (R&D Systems, cat. no. 6576-B7-50) (human, UniProt Q7Z7D3 29-258, biotinylated in ELISA); assay: SPR
T3 construct: bought; also called hB7-H4
T3 sequence (looked up): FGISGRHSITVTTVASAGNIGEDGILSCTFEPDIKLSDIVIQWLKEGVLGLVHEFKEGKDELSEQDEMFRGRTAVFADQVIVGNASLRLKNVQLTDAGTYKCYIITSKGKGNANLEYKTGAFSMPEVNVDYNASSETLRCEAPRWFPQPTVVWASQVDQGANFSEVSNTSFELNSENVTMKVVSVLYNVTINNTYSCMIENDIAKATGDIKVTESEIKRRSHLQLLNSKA
Protocol: (§2) One flow cell surface on each chip was activated and deactivated for use as blank during analyte injections. In the kinetic experiment, HBS-EP was used as running buffer and the flow rate was 50 μl/min. The analytes, i.e. the Z variants, were each diluted in HBS-EP buffer within a concentration range of 1000 to 0.01 nM and injected for 5 min, followed by dissociation in running buffer for 15-25 min. After dissociation, the surfaces were regenerated with one or two injections of 0.1% SDS. Kinetic constants were calculated from the sensorgrams using the Langmuir 1:1 model of BiaEvaluation software 4.1 (GE Healthcare).
(§3) The Z variants were also tested for binding against the sequence-related proteins hPD-L2, hB7-H3 and hB7-H4. The Biacore analyses were performed essentially as described in Example 3, however a flow rate of 30 μl/min was used.

[5] = biological target: T4, human B7-H3 Fc Chimera (R&D Systems, cat. no. 1027-B3-100) (human, UniProt Q5ZPR3-2 29-245, biotinylated in ELISA); assay: SPR
T4 construct: bought; also called hB7-H3; not shown: Fc part of the bought Fc chimera, not described
T4 sequence (looked up): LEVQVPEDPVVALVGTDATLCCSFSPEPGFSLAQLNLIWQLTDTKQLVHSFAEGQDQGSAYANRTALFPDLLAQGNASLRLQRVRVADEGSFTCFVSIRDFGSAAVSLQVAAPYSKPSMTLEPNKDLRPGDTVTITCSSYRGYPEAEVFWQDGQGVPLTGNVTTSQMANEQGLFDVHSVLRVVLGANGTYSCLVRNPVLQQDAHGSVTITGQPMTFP
Protocol: as §2, §3

[6] = biological target: T5, human PD-L2 Fc Chimera (R&D Systems, cat. no. 1224-PL-100) (human, UniProt Q9BQ51 20-219, biotinylated in ELISA); assay: SPR
T5 construct: bought; also called hPD-L2; not shown: Fc part of the bought Fc chimera, not described
T5 sequence (looked up): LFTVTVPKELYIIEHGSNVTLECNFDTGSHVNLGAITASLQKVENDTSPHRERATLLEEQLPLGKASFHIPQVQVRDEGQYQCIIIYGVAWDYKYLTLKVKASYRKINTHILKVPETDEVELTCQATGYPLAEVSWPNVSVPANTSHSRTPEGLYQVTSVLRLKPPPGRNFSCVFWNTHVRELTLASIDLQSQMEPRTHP
Protocol: as §2, §3

[7] = biological target: T2, rhesus PD-L1/Fc Chimera (Sino …); assay: SPR, 1.67-135 nM
Protocol: as §1

T1 sequence (Q9NZQ7 19-239, change not shown): as the sequence (F6PJN1 entry or part of it C02H C02H) above, with T33A, S34A, N62S, Q68R, R82Q, L173F, A185T, I192T, L215H counted along it

B1: His6-Z17756 (designed binder)
chain: MGSSHHHHHHLQVDAKYAKERNAAAFEILYLPNLTNAQKWAFIWKLDDDPSQSSELLSEAKKLNDSQAPKVD
IC50 [1]: 1.5 nM | Kd [2]: ~2.1 nM | Kd [3]: ~0.24 nM | binding result [4]: no binding (tested: 500 nM) | binding result [5]: no binding (tested: 500 nM) | binding result [6]: no binding (tested: 500 nM) | Kd [7]: 0.17 nM

B2: His6-Z17746 (designed binder)
chain: MGSSHHHHHHLQVDAKYAKERNEAAYEILYLPNLTNAQKWAFIWKLDDDPSQSSELLSEAKKLNDSQAPKVD
IC50 [1]: 1.3 nM | Kd [2]: ~0.52 nM | binding result [4]: no binding (tested: 500 nM) | binding result [5]: no binding (tested: 500 nM) | binding result [6]: no binding (tested: 500 nM)

B3: His6-Z18149 (designed binder)
chain: MGSSHHHHHHLQVDAKYAKERNNAAYEILYLPNLTQAQKWAFIWKLDDDPSQSSELLSEAKKLNDSQAPKVD
Kd [2]: ~0.96 nM | Kd [3]: ~0.53 nM | binding result [4]: no binding (tested: 500 nM) | binding result [5]: no binding (tested: 500 nM) | binding result [6]: no binding (tested: 500 nM)

B4: His6-Z18129 (designed binder)
chain: MGSSHHHHHHLQVDAKYAKERNSAAYEILYLPNLTQAQKWAFIWKLDDDPSQSSELLSEAKKLNDSQAPKVD
IC50 [1]: 0.6 nM | Kd [2]: ~1.2 nM | binding result [4]: no binding (tested: 500 nM) | binding result [5]: no binding (tested: 500 nM) | binding result [6]: no binding (tested: 500 nM)

B5: His6-Z18090 (designed binder)
chain: MGSSHHHHHHLQVDAKYAKERNDAAYEILYLPNLTNQQKWAFIWKLADDPSQSSELLSEAKKLNDSQAPKVD
IC50 [1]: 0.67 nM | Kd [2]: ~2.3 nM | Kd [3]: ~0.51 nM | binding result [4]: no binding (tested: 500 nM) | binding result [5]: no binding (tested: 500 nM) | binding result [6]: no binding (tested: 500 nM)

B6: His6-Z18054 (designed binder)
chain: MGSSHHHHHHLQVDAKYAKERNDAAFEILYLPNLTQAQIWAFIWKLDDDPSQSSELLSEAKKLNDSQAPKVD
IC50 [1]: 1.1 nM | Kd [2]: ~1.2 nM | binding result [4]: no binding (tested: 500 nM) | binding result [5]: no binding (tested: 500 nM) | binding result [6]: no binding (tested: 500 nM)

B7: His6-Z17978 (designed binder)
chain: MGSSHHHHHHLQVDAKYAKERNEAAYEILYLPNLTQSQKWAFIWKLDDDPSQSSELLSEAKKLNDSQAPKVD
IC50 [1]: 0.62 nM | Kd [2]: ~1 nM | Kd [3]: ~0.45 nM | binding result [4]: no binding (tested: 500 nM) | binding result [5]: no binding (tested: 500 nM) | binding result [6]: no binding (tested: 500 nM)

B8: His6-Z18066 (designed binder)
chain: MGSSHHHHHHLQVDAKYAKERNEAAYEILYLPNLTNSQKWAFIWKLDDDPSQSSELLSEAKKLNDSQAPKVD
IC50 [1]: 0.83 nM | Kd [2]: ~2.1 nM | Kd [3]: ~0.43 nM | binding result [4]: no binding (tested: 500 nM) | binding result [5]: no binding (tested: 500 nM) | binding result [6]: no binding (tested: 500 nM) | Kd [7]: 0.35 nM

B9: His6-Z18039 (designed binder)
chain: MGSSHHHHHHLQVDAKYAKERNEAAYEILYLPNLTQSQIWAFIWKLDDDPSQSSELLSEAKKLNDSQAPKVD
Kd [2]: ~1.9 nM | Kd [3]: ~0.63 nM | binding result [4]: no binding (tested: 500 nM) | binding result [5]: no binding (tested: 500 nM) | binding result [6]: no binding (tested: 500 nM)

B10: His6-Z18022 (designed binder)
chain: MGSSHHHHHHLQVDAKYAKERNSAAYEILYLPNLTNQQKWAFIWKLDDDPSQSSELLSEAKKLNDSQAPKVD
IC50 [1]: 0.31 nM | Kd [3]: ~0.34 nM | binding result [4]: no binding (tested: 500 nM) | binding result [5]: no binding (tested: 500 nM) | binding result [6]: no binding (tested: 500 nM)

B11: His6-Z18418 (designed binder)
chain: MGSSHHHHHHLQVDAKYAKERNEAAYEILHLPNLTSYQHWAFIWKLDDDPSQSSELLSEAKKLNDSQAPKVD
IC50 [1]: 0.57 nM | Kd [2]: ~4.1 nM | Kd [3]: ~1.9 nM | binding result [4]: no binding (tested: 500 nM) | binding result [5]: no binding (tested: 500 nM) | binding result [6]: no binding (tested: 500 nM)

B12: His6-Z18353 (designed binder)
chain: MGSSHHHHHHLQVDAKYAKERNEAAYEILYLPNLTQAQKWAFIWKLDDDPSQSSELLSEAKKLNDSQAPKVD
IC50 [1]: 0.72 nM | Kd [2]: ~1.6 nM | Kd [3]: ~0.46 nM | binding result [4]: no binding (tested: 500 nM) | binding result [5]: no binding (tested: 500 nM) | binding result [6]: no binding (tested: 500 nM)

B13: His6-Z18070 (designed binder)
chain: MGSSHHHHHHLQVDAKYAKERNAAAYEILYLPNLTNHQKWAFIWKLDDDPSQSSELLSEAKKLNDSQAPKVD
IC50 [1]: 0.86 nM | Kd [2]: ~2.5 nM | binding result [4]: no binding (tested: 500 nM) | binding result [5]: no binding (tested: 500 nM) | binding result [6]: no binding (tested: 500 nM)

B14: His6-Z18052 (designed binder)
chain: MGSSHHHHHHLQVDAKYAKERNIAAYEILYLPNLTQSQIWAFIWKLDDDPSQSSELLSEAKKLNDSQAPKVD
IC50 [1]: 0.34 nM | Kd [2]: ~1.2 nM | Kd [3]: ~0.45 nM | binding result [4]: no binding (tested: 500 nM) | binding result [5]: no binding (tested: 500 nM) | binding result [6]: no binding (tested: 500 nM)

B15: His6-Z17972 (designed binder)
chain: MGSSHHHHHHLQVDAKYAKERNIAAYEILYLPNLTNNQKWAFIWKLDDDPSQSSELLSEAKKLNDSQAPKVD
Kd [3]: ~0.54 nM | binding result [4]: no binding (tested: 500 nM) | binding result [5]: no binding (tested: 500 nM) | binding result [6]: no binding (tested: 500 nM)

B16: His6-Z18101 (designed binder)
chain: MGSSHHHHHHLQVDAKYAKERNSAAYEILYLPNLTNLQKWAFIWKLDDDPSQSSELLSEAKKLNDSQAPKVD
IC50 [1]: 0.62 nM | Kd [3]: ~0.93 nM | binding result [4]: no binding (tested: 500 nM) | binding result [5]: no binding (tested: 500 nM) | binding result [6]: no binding (tested: 500 nM)

B17: His6-Z18233 (designed binder)
chain: MGSSHHHHHHLQVDAKYAKERNTAAQEILYLPNLTQGQKWAFIWKLDDDPSQSSELLSEAKKLNDSQAPKVD
IC50 [1]: 0.15 nM | Kd [2]: ~4.4 nM | Kd [3]: ~0.72 nM | binding result [4]: no binding (tested: 500 nM) | binding result [5]: no binding (tested: 500 nM) | binding result [6]: no binding (tested: 500 nM)
